In all, about 360,000 compounds went through this assay and about 25,000 (6.9%) were called active. Inconclusive means that the source gave no clear call. Such entries were picked first, then a sample of the others. Calls follow the shape of the dose curve; as a rule, active = well fitted inhibition curve with a large enough effect; inconclusive = small, poorly fitted or top-dose-only effect; inactive = flat fitted curve, though single readings scatter. A potency beside an inconclusive call is a rough fit, not a confirmed value.
Biological target: Luciferin 4-monooxygenase (Photinus pyralis) (UniProt P08659)
UniProt P08659, sequence (P08659 whole entry, looked up): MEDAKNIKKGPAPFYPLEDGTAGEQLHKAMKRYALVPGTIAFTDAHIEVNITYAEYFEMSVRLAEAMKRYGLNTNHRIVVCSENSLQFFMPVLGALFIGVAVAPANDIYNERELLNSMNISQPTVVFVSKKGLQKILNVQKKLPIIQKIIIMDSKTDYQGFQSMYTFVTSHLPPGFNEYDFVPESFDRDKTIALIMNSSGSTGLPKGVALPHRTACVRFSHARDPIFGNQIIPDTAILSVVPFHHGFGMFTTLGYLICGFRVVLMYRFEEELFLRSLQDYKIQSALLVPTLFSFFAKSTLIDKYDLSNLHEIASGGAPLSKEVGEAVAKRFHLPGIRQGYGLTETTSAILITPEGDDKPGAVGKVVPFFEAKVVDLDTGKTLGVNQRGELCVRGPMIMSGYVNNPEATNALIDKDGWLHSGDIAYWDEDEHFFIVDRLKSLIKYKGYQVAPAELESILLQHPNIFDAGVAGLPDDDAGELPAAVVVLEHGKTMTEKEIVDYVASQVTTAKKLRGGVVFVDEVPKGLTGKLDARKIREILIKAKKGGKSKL
Assay: qHTS profiling assay for firefly luciferase inhibitor/activator using purifed enzyme and Km concentrations of substrates (counterscreen for miR-21 project); also: nearly all actives have a fitted effect of over 55% in size
Conditions: purified FLuc, luminescence inhibition; series mostly up to 57.5 µM
Summary of the method: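 Purified P. pyralis luciferase (10nM final) with 10uM D-luciferin and 10uM ATP (Km levels) in 50mM Tris acetate pH 7.5, 10mM Mg acetate, 0.01% Tween-20, 0.05% BSA; qHTS 6-point titration, ~60 µM downward; luminescence read.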
Potency is read from the fitted curve at half-maximal effect; tags tell the direction and shape of the fitted curve.

| Compound | Potency |
| --- | --- |
| CCc1nnc(NC(=O)CSc2nnc(CNc3ccc(OC)cc3)n2CC)s1 | inconclusive: 30.1 µM [inhibitor, single point] |
| Cn1c(SCc2nc3ccccc3n2CCO)nc2ccccc21 | inconclusive: 23.9 µM [inhibitor, partial curve, poor fit] |
| CC(=O)N1CCN(c2ccc(NC(=O)c3ccc4c(c3)OCCO4)cc2Cl)CC1 | active: 6.01 µM |
| O=C(NC1CCCC1)c1ccc(CSCc2ccccc2F)o1 | inconclusive: 37.9 µM [inhibitor, single point] |
| Cc1c(C(=O)OCC(=O)N(C)c2ccccc2)oc2ccccc12 | inconclusive: 37.9 µM [inhibitor, single point] |
| C/C(=N\NC(=O)COc1ccc(C(C)(C)C)cc1)c1ccc(OC(F)F)cc1 | inconclusive: 7.57 µM [inhibitor, full curve] |
| CC1Cc2cc(/C(O)=C3\C(=O)C(=O)N(Cc4ccncc4)C3c3ccccc3F)ccc2O1 (stereo not given) | inactive |
| Cc1ccc(OCCCC(=O)Nc2ccc(N3CCOCC3)cc2)cc1 | inactive |
| CC(=O)c1ccc(NC(=O)c2cccc(NC(=O)c3ccccc3)c2)cc1 | inconclusive: 10.7 µM [inhibitor, partial curve] |
| COc1ccccc1C(c1c(O)cc(C)n(Cc2ccco2)c1=O)N1CCCCC1 (stereo not given) | inconclusive: 15.1 µM [inhibitor, partial curve, poor fit] |
| Cc1cc(C)cc(NC(=O)N2c3ccccc3NC(=O)CC2C)c1 (stereo not given) | inactive |
| COc1ccc(C(=O)NCCn2cc(SCC(=O)Nc3ccc4c(c3)OCCO4)c3ccccc32)cc1 | inconclusive: 12 µM [inhibitor, partial curve] |
| O=C(Nc1nc2ccccc2[nH]1)c1cccc([N+](=O)[O-])c1 | inconclusive: 10.7 µM [inhibitor, partial curve] |
| C/C(=N\NC(=O)c1ccc(NS(=O)(=O)c2cccs2)cc1)c1ccc(C(C)(C)C)cc1 | active: 12 µM |
| O=C(CNC(=O)c1ccccc1)OCc1nc2ccccc2s1 | active: 9.53 µM |
| COC(=O)c1ccc(NC(=O)c2c(NCc3cccc(F)c3)sc3c2CCCC3)cc1 | inconclusive: 13.5 µM [inhibitor, partial curve] |
| Cc1ccc(C(=O)N/N=C/c2sc(=O)n(Cc3cccc(C(=O)O)c3)c2Cl)cc1 | active: 16.9 µM |
| Cc1ccc(-c2csc(N=C(N)N)n2)c(C)c1 | inconclusive: 23.9 µM [inhibitor, single point] |
| Cc1ccc2nc3c(cc2c1)c(C)nn3-c1ccccc1 | inconclusive: 16.9 µM [inhibitor, partial curve] |
| COc1ccc(-c2c(=O)n(OCc3nc4ccccc4[nH]3)c3ccccc3[n+]2[O-])cc1 | inconclusive: 26.9 µM [inhibitor, single point] |
| Cc1cc2c(cc1S(=O)(=O)N(CCN(C)C)Cc1ccccc1)OCC(=O)N2 | inactive |
| O=C(/C=C/c1ccccc1Cl)NCc1ccccc1 | inconclusive: 23.9 µM [inhibitor, single point] |
| CC(C)c1ccc(NC(=O)[C@@H]2CCC(=O)N2C2OC(=O)c3ccccc32)cc1 (stereo not given in full) | inconclusive: 19 µM [inhibitor, partial curve] |
| CC(=O)Oc1cccc(C(=O)Nc2cccc(C(=O)Nc3ccccc3C(=O)O)c2)c1 | inconclusive: 23.9 µM [inhibitor, single point] |

| Compound | Potency |
| --- | --- |
| Cc1cc(Nc2ccccc2)nn1C(=O)c1ccc(Cl)cc1 | active: 9.53 µM |
| O=C(O/N=C/c1ccc2c(c1)OCO2)c1ccccc1Cl | active: 0.953 µM |
| Clc1cccc(CN2CCN(Cc3nc(CCc4ccccc4)no3)CC2)c1 | inactive |
| Brc1ccccc1OCCOc1cccc2cccnc12 | active: 12 µM |
| COc1cccc(-c2cc(C(=O)NCC3CCCO3)on2)c1 (stereo not given) | inconclusive: 23.9 µM [inhibitor, partial curve] |
| Cc1ccc(NC(=O)n2ccc(-c3ccc(-n4ccnc4)cc3)n2)cc1 | inconclusive: 8.49 µM [inhibitor, partial curve] |
| O=C(/C=C/c1ccccc1Cl)Nc1ccc(S(=O)(=O)Nc2ncccn2)cc1 | active: 13.5 µM |
| O=C(Nc1ccccc1F)c1ccc(Cn2cc(Br)cn2)cc1 | inconclusive: 37.9 µM [inhibitor, single point] |
| Cc1cc(C)c(S(=O)(=O)NCc2ccc3c(c2)CCN3C(=O)c2ccccc2)c(C)c1 | inactive |
| COc1ccc(-c2cc(C(=O)N3CCN(C(c4ccccc4)c4ccccc4)CC3)no2)cc1OC | inactive |
| O=C(Nc1cccc(C(=O)Nc2ccc(Cl)cn2)c1)c1ccccc1 | inconclusive: 7.57 µM [inhibitor, partial curve, poor fit] |
| O=C(NCCSc1ccccc1)c1ccc(Br)cc1 | active: 1.35 µM |
| COc1cc(CC(=O)OCC(=O)c2ccc3c(c2)OCCO3)cc(OC)c1OC | inconclusive: 30.1 µM [inhibitor, single point] |
| COc1ccc(C(=O)Nc2nnc(SCc3cc(=O)c4cc(C)ccc4[nH]3)s2)cc1OC | inconclusive: 19 µM [inhibitor, partial curve, poor fit] |
| c1ccc(CCc2ccccc2-c2nc(-c3ccccn3)no2)cc1 | inconclusive: 23.9 µM [inhibitor, partial curve, poor fit] |
| CCOC(=O)c1oc2cc(C)cc(C)c2c1C | inconclusive: 19 µM [inhibitor, single point] |
| Nc1nnc(-c2ccccc2F)s1 | inconclusive: 30.1 µM [inhibitor, partial curve, poor fit] |
| COc1ccc(-c2csc(N)n2)cc1F | inconclusive: 26.9 µM [inhibitor, partial curve] |
| O=C(N/N=C/c1ccc(OC(F)F)cc1)c1cccc(S(=O)(=O)N2CCOCC2)c1 | inactive |
| Oc1ccccc1-c1nc2cnccn2c1Nc1ccc2c(c1)OCCO2 | inconclusive: 21.3 µM [inhibitor, partial curve] |
| O=C(CCCN=C1NS(=O)(=O)c2ccccc21)OCC(=O)c1ccc(F)cc1 | inconclusive: 19 µM [inhibitor, partial curve] |
| Cc1cc(C)n2nc(C(=O)NCC(=O)Nc3ccc(F)c(F)c3)nc2n1 | inactive |
| CC(C(=O)OCC(=O)c1ccc(Br)cc1)N1C(=O)C2C3C=CC(C3)C2C1=O (stereo not given) | inconclusive: 21.3 µM [inhibitor, partial curve, poor fit] |
| CN(C)S(=O)(=O)c1cccc(NC(=O)c2ccc3c(c2)OCCO3)c1 | active: 9.53 µM |

| Compound | Potency |
| --- | --- |
| CC(C)c1noc(-c2ccccc2OCC(=O)Nc2ccc([N+](=O)[O-])cc2)n1 | inactive |
| COc1ccc(NC(=O)CN(C)C(=O)CCC(=O)c2ccc(C)cc2)cc1 | inconclusive: 21.3 µM [inhibitor, single point] |
| CCn1c2c(c(=O)n3ncc(C(=O)N4CCN(c5ccccc5)CC4)c13)CN(Cc1ccc(OC)cc1)CC2 | inactive |
| Cc1ccccc1NC(=O)N1c2ccccc2CC1C (stereo not given) | inconclusive: 37.9 µM [inhibitor, partial curve, poor fit] |
| Cc1ccc(NC(=O)Nc2nnc(SCC(=O)N3CCCCC3)s2)cc1 | inconclusive: 8.49 µM [inhibitor, partial curve] |
| CCOc1cc(/C=C2\C(=N)N3N=C(C)SC3=NC2=O)ccc1OCCOc1ccccc1 | inactive |
| C[C@@H]1CCC(=O)N(CC[C@H](Sc2ccccc2)c2ccccc2)CC1 | inconclusive: 23.9 µM [inhibitor, single point] |
| Cc1ccc(NC(=O)NC2=NN(c3ccccc3)C(=O)/C2=C2/CCCN2C)cc1 | inconclusive: 37.9 µM [inhibitor, partial curve, poor fit] |
| Cc1cc(NC(=O)c2cc(-c3ccc(O)cc3)on2)no1 | inconclusive: 13.5 µM [inhibitor, partial curve] |
| CC(=O)c1ccc(Cl)c(Cl)c1Cl | inactive |
| Cc1cc(C)c2sc(NC(=O)C3CC3)nc2c1 | inconclusive: 9.53 µM [inhibitor, partial curve] |
| CCOc1ccc(CNC(=O)c2ccc3c(c2)c(C)c(C)n3C)cc1 | inconclusive: 21.3 µM [inhibitor, partial curve, poor fit] |
| COC(=O)C1=C(C)NC(C)=C(C(=O)OC)C1C(=O)OCC(=O)c1ccc(Br)cc1 | inactive |
| COc1ccc(S(=O)(=O)NC(C)C(=O)NCc2ccccn2)cc1OC (stereo not given) | inactive |
| CCCc1ccc(OCC(=O)Nc2cc(S(=O)(=O)CC)ccc2O)cc1 | active: 26.9 µM |
| CCCn1c2ccccc2c2cnn(CC(=O)NCC3CCN(Cc4ccc(C)cc4)CC3)c(=O)c21 | inconclusive: 12 µM [inhibitor, partial curve, poor fit] |
| COc1cccc(CNc2nccs2)c1O | inconclusive: 30.1 µM [inhibitor, single point] |
| Cc1c(C(=O)NCc2ccccn2)sc2nc(-c3ccccc3)cn12 | inconclusive: 23.9 µM [inhibitor, single point] |
| CCc1ccc(NC(=O)Cc2ccc(NC3=NC4CS(=O)(=O)CC4S3)cc2)cc1 (stereo not given) | inconclusive: 37.9 µM [inhibitor, partial curve, poor fit] |
| Cc1ccc2nc3c(cc(C#N)c(=O)n3-c3nnc(SCc4ccc(F)cc4)s3)c(=O)n2c1 | inactive |
| Cc1cccc2c(=O)cc(CSc3ccccc3NC(=O)C(C)C)[nH]c12 | inactive |
| Cc1ccc(C(=O)Nc2ccc(N3CCCC3)cc2)cc1 | inconclusive: 1.9 µM [inhibitor, partial curve, poor fit] |
